Measurements as given in the supplement of paper PMC10338343.
± gives the standard deviation. In all, about 3,700 sequences were measured (“pre-steady-state target cleavage rate”: median about 0.02, highest 2% from about 0.23 on). The entries are a selection whose mix differs from that of the whole data set.

System: MILI (PIWIL2) piRISC loaded with Kctd7 piRNA (26 nt)
Test: pre-steady-state target cleavage rate (min^-1); MIWI and MILI are mouse PIWI proteins and EfPiwi is from a freshwater sponge; tags in brackets are library labels; higher = faster piRNA-guided slicing of the target
Details: guide: Kctd7 piRNA 5'p-UGUUAAUCUCUCAGAGAAGGUGACAG; auxiliary factor: 500 nM mouse GTSF1
In short: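 The pre-steady-state cleavage rate was obtained by Cleave-'n-Seq with a burst-and-steady-state fit. A transcribed, DNA-blocked target RNA library (0.1 nM) was mixed with 1 nM active affinity-purified piRISC carrying one synthetic guide, with or without 500 nM GTSF1 partner protein, in HEPES–potassium acetate buffer at 33 °C for 0–8 or 0–960 min. Uncleaved targets were sequenced and normalised to depth and to weakly complementary targets, with three trials pooled and k3 capped at 0.0001 min^-1.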

Sequence | pre-steady-state target cleavage rate
UAGUGACAGUGGAAGACUGAGGGAUUAACA | < 0.0001
UAGUGACACAGCCUUCUCUGAGAGAUUAACA | 0.0834 ± 0.0087
UAGUGACAGUGCUUCCUCUGAGAGAUUAACA | 0.0401 ± 0.0044
UAGUGAGUCUCCUUCUCUGAGUGAUUAACA | 0.00446 ± 0.0024
UAGUGUGUCCACCUUCUCUGAGAGAUUAACA | 0.152 ± 0.021
UAGUGACACAGCUUCUCUGAGAGAUUUACA | 0.0492 ± 0.01
UAGUCUGUCACCUUAUCUGAGAGAUUAACA | 0.165 ± 0.013
UAGUGAGACACCUUCUCUGAGAGUUUAACA | 0.154 ± 0.038
UAGUCUGUCAGCUUCUCUGAGAGUUUAACA | 0.0628 ± 0.0096
UAGUCUGAGUCCUUCUCUGAGAGAUUAUGA | 0.00664 ± 0.0032
UAGUCUGUCACCUACUCUGAGAGAUUAACA | 0.17 ± 0.0087
UAGUGACACACCUUCUCUGAGGGAUUAACA | 0.101 ± 0.015
UAGUGACAGUCCUUCUUUGAGAGAUUAACA | 0.0638 ± 0.0078
UAGUGACUCACCUUCACUGAGAGAUUUUGA | 0.048 ± 0.016
UAGUGAGUCACCAUCUCUGUGAGAUUAACA | 0.0357 ± 0.0047
UAGUGACUGACCUUCUCUGACAGAUUAACA | 0.059 ± 0.019
UAGUGAGUCACCUUCUCUGAGACAAUAACA | 0.00805 ± 0.0051
UAGUCUGUCACCUUCUCUGAGAGAUUUACA | 0.193 ± 0.026
UAGUGACAGUGGAUCUCUGAGAUAUUAACA | < 0.0001
UAGUGAGUCACGUUCUCUGAGAGAUUUACA | 0.0932 ± 0.023
UAGUGACAGUCCUUCUCUGAGAGAUUAAUCA | 0.0628 ± 0.011
UAGUGACACACCUUGACUGAGAGAUUAACA | 0.0582 ± 0.022
UAGUGAGAGUCCUUCUCUGAGAGAUUAACA | 0.0775 ± 0.015

Sequence | pre-steady-state target cleavage rate
UAGUGAGUCACCUUCACUGAGACAUUAACA | 0.0967 ± 0.024
UAGUCUGUCACCCUCUCUGAGAGAUUAACA | 0.238 ± 0.018
UAGUCUGUCACCUUGUCUGAGAGAUUAUCA | 0.077 ± 0.018
UAGUCUGUGUCCUUCUCUGAGAGAUUAAGA | 0.0324 ± 0.0063
UAGUGAGUCACCUUCUCUGGAGAGAUUAACA | 0.00454 ± 0.0043
UAGUGACAGUCCUUCUGUGUGAGAUUAACA | 0.0171 ± 0.0028
UAGUGUGUCACCAUCUCUGAGACAUUAACA | 0.063 ± 0.013
UAGUGACACACCUACUCUGUGAGAUUAACA | 0.0409 ± 0.0069
UAGUCUGUCACCUUCUCUGAGAGAUUAUACA | 0.224 ± 0.043
UAGUGUGACACCUUCUCUGAGAGAUUUACA | 0.19 ± 0.046
UAGUCUGUCACCUUCUCAGAGACAUUAACA | 0.118 ± 0.019
UAGUGACAGUGGAUGACUGAGAGAUUAACA | < 0.0001
UAGUGACAGUGCUUCUCUGAGAGAUUAACA [g2:g19:cont:t1A] | 0.0405 ± 0.0054
UAGUGACACUCCUUCUCUGAGAGUUUAACA | 0.0236 ± 0.0075
UAGUGACACACCUUGUCAGAGAGAUUAACA | 0.0569 ± 0.0091
UAGUGACAGACCAUCUCUGAGAGUUUAACA | 0.0108 ± 0.0049
UAGUGACAGCCCUUCUCUGAGAGAUUAACA | 0.103 ± 0.013
UAGUGACACACCUUACUCUGAGAGAUUAACA | 0.0582 ± 0.0058
UAGUGUGUCACCUUCACUCAGAGAUUAACA | 0.0272 ± 0.01
UAGUGACACACGUUCUCAGAGAGAUUAACA | 0.0665 ± 0.011
UAGUGACUCACGAUCUCUGAGAGAUUAAGA | 0.0103 ± 0.005
UAGUCUGUCACCAUCUCUGAGAGAUUAUGA | 0.00931 ± 0.0048
UAGUGACAGACCUUCUCUGAGAGCUUAACA | 0.0417 ± 0.0084

Sequence | pre-steady-state target cleavage rate
UAGUGACAGUGGAUGUCUGAGACAUUAACA | < 0.0001
UAGUGUGUCACCUUCUCUGUCAGAUUAACA | 0.00798 ± 0.004
UAGUCUGUCACCUCCUCUGAGAGAUUAACA | 0.215 ± 0.011
UAGUGAGUCACCUUCUCUGAGAGAUUAUGA | 0.0953 ± 0.026
UAGUGACUCACCUUCUCAGAGAGUUUAACA | 0.04 ± 0.0095
UAGUGACAGUGCUUCUUCUGAGAGAUUAACA | 0.00475 ± 0.0027
UAGUGACAGACCUUCUCUGAGAGAUUAAUCA | 0.0797 ± 0.012
UAGUCUGUCACCUUCUCUGAGAGGUUAACA | 0.198 ± 0.025
UAGUGAGUCACCUUGUCUGAGAGAUUAUGA | 0.00612 ± 0.0051
UAGUGUGUCAGGAUCUCUGAGAGAUUAUGA | 0.00413 ± 0.0029
UAGUGAGUCACCUUCUGAGAGAGAUAUUGA | 0.00466 ± 0.0046
UAGUCUGUCUCCUUCUCUGAGAGAUUAACA | 0.176 ± 0.011
UAGUGAGUGACCUUCUCUGAGAGAUUAAGA | 0.102 ± 0.028
UAGUGUGUCACCUUCUGAGAGAGAUUAACA | 0.101 ± 0.013
UAGUGACUCACCUUGUGUGAGAGAUUAACA | 0.0834 ± 0.0088
UAGUGACAGUGCUUCUGUGUGAGAUUAACA | 0.0167 ± 0.0033
UAGUGACACACCUUCUCUGAGAGGUUAACA | 0.0913 ± 0.011
UAGUGAGUCACCUUCUCUGAGUGAUUAACA | 0.0142 ± 0.0063
UAGUGAGUCACCUUCUGUGAGACAUUAACA | 0.0469 ± 0.011
UAGUGACAGUACUUCUCUGAGAGAUUAACA | 0.0199 ± 0.004
UAGUGUGUCACCUACACUGAGAGAUUAACA | 0.15 ± 0.011
UAGUGACAGACCUUGUCUCAGAGAUUAACA | 0.0128 ± 0.0035
UAGUGACAGACCUUCUCUGAGAGACUUAACA | 0.0355 ± 0.013

Sequence | pre-steady-state target cleavage rate
UAGUGACUCACCUUCUCUGAGAGAUUACA | 0.117 ± 0.028
UAGUGACAGACCUUUCUGAGAGAUUAACA | 0.0108 ± 0.0065
UAGUGACAGUGGAUUCUCUGAGAGAUUAACA | 0.00448 ± 0.0014
UAGUCUGUCAGCUUCACUGAGAGAUUAACA | 0.0681 ± 0.0072
UAGUGUGUCACCUUCUCUGCGAGAUUAACA | 0.11 ± 0.016
UAGUGAGUCACCUUCUCUGAGAGUUUAUCA | 0.132 ± 0.049
UAGUGACACUCCUUGUCUGAGAGAUUAACA | 0.0837 ± 0.015
UAGUGUGUCACAUUCUCUGAGAGAUUAACA | 0.184 ± 0.014
UAGUGACACACGUUCUGUGAGAGAUUAACA | 0.0626 ± 0.011
UAGUGAGUCACCUUCUCCGAGAGAUUAACA | 0.394 ± 0.084
UAGUGACAGUGGUUCUCUGAGAGAGUAACA | < 0.0001
UAGUGACUCACCUUCUCUGAGAGAGUAACA | 0.133 ± 0.029
UAGUGUGUCACCUACUCUGAGAGAUUAACA | 0.208 ± 0.017
UAGUGUGUCACCUUCUCGUGAGAGAUUAACA | 0.012 ± 0.0063
UAGUGACAGACCUUCUCUCAGAGAUUAACA | 0.0249 ± 0.007
UAGUGACAGUCCAUCUGUGAGAGAUUAACA | 0.0105 ± 0.0034
UAGUGACUCACCUUCUGUCAGAGAUUAACA | 0.0422 ± 0.0076
UAGUCAGACACCUUCUCUGAGAGAUUAACA | 0.183 ± 0.0079
UAGUCUGUCACUUCUCUGAGAGAUUAACA | 0.124 ± 0.0085
UAGUCUGUCAGCUUCUCUGAGAGAAUAACA | 0.0658 ± 0.013
UAGUCUGUCACCUUCUCUGAGGGAUUAACA | 0.0945 ± 0.012
UAGUGACAGUCCUACUCUGAGAGUUUAACA | 0.00579 ± 0.0019
UAGUGACAGACCUUCAUCUGAGAGAUUAACA | 0.00437 ± 0.0038
